About 2,200 (0.71%) of roughly 310,000 compounds showed an effect of 50% or more. The effect is printed as a negative number. This is one part of the list.

The assay deals with human ether-à-go-go-related gene (hERG) potassium channel (human, UniProt Q12809). The assay can be described thus: primary screen, population patch clamp on CHO cells stably expressing hERG.
Sequence of human ether-à-go-go-related gene (hERG) potassium channel (Q12809 whole entry, looked up): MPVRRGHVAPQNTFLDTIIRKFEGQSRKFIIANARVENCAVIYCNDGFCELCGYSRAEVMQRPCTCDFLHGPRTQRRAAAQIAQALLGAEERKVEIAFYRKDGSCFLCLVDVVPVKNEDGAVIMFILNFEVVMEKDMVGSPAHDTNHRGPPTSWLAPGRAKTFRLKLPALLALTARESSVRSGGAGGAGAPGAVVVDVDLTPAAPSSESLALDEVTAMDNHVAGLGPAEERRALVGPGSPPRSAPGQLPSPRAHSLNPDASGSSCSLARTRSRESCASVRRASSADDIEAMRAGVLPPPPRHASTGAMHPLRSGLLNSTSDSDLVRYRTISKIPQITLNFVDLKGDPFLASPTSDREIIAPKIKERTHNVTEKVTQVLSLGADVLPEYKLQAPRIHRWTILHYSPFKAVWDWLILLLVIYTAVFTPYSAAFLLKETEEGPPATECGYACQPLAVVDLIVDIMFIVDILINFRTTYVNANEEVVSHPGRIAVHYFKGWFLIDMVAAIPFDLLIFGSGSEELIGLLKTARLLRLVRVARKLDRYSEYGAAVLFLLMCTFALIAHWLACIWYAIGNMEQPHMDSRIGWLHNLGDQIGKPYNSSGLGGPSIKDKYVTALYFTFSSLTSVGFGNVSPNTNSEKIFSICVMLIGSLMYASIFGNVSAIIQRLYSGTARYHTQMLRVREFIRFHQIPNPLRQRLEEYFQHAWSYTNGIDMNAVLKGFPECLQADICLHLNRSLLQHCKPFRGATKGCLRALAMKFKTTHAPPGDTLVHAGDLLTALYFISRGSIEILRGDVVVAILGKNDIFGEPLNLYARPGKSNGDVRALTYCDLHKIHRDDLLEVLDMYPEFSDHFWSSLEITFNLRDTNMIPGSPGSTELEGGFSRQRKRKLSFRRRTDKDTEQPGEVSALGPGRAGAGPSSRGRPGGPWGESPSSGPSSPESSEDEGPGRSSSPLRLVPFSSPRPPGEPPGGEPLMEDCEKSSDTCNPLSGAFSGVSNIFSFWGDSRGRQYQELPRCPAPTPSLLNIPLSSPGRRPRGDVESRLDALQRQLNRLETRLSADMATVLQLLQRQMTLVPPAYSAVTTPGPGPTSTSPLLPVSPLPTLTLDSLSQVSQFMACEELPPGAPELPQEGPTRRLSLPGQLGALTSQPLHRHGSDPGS
Regarding `COC(=O)C1=C(C)N(c2ccc(OC)c(OC)c2)C(=O)C1`, the “hERG current change (%, negative = inhibition) at 1uM” value amounted to 8.06%.

On to `O=C1C2C3CCCC3=C3CCCC3C2C(=O)N1c1ccc(F)cc1` (centres unmarked), for which the “hERG current change (%, negative = inhibition) at 1uM” value came to 2.62%. As to `c1ccc2c(-c3nnc4n3CCCCC4)cc(-c3ccncc3)nc2c1`, the “hERG current change (%, negative = inhibition) at 1uM” value is -13.9%.

`CC1(C)CC(=O)c2cnc(NC(=O)CCc3ccccc3)nc2C1`: the “hERG current change (%, negative = inhibition) at 1uM” value is recorded as 7.42%.

Turning to `Cc1ccc2nc(-c3ccc4c(c3)OCCO4)cc(C(=O)O)c2c1`, the “hERG current change (%, negative = inhibition) at 1uM” value came out at 8.22%.

Regarding `COc1ccc(OCCNC(=O)C(Cc2c[nH]c3ccccc23)NC(C)=O)cc1` (centres unmarked), the “hERG current change (%, negative = inhibition) at 1uM” value is reported as 4.38%. As for `NS(=O)(=O)c1ccc(CCNC(=O)C(=O)c2c[nH]c3ccccc23)cc1`, the “hERG current change (%, negative = inhibition) at 1uM” value was found to be 2.22%.

`Cc1ccc(C(C(=O)NCc2ccccc2)N(C(=O)c2csnn2)c2cccc3ccccc23)o1` (centres unmarked): the “hERG current change (%, negative = inhibition) at 1uM” value was -0.148%. For the compound `O=S(=O)(c1ccc(-n2cnnn2)cc1)N1CCNCC1`, the “hERG current change (%, negative = inhibition) at 1uM” value is -0.693%. To `CCC(Sc1nc2n[nH]c(C)c2c(=N)n1-c1cccc(Cl)c1)C(=O)NCCOC` (centres unmarked) belongs -0.659%. With `CN(C(=O)CSC1=NCCS1)c1ccccc1`, the “hERG current change (%, negative = inhibition) at 1uM” value was found to be 18.1%.

Consider `COc1ccccc1NC(=O)N1CCCC1C(=O)NCc1cccs1` (centres unmarked), for which the “hERG current change (%, negative = inhibition) at 1uM” value worked out at 4.45%. To `CC(C)(C)NC(=O)Cc1ccc(S(=O)(=O)N2CCCC2)s1` belongs 21.3%. To `O=c1oc2cc(Br)ccc2n1Cc1ccccc1` belongs 15.8%.

On to `Cc1ccnc(SCCn2c(N3CCN(c4ccccc4)CC3)nc3c2c(=O)[nH]c(=O)n3C)n1`, for which the “hERG current change (%, negative = inhibition) at 1uM” value came out at 1.34%. For `COc1ccc(Cl)cc1S(=O)(=O)NCc1cccnc1` the value was 6.51%; for `Cc1nc(-c2ccc(F)cc2)c(CC(=O)N(C)CC(=O)Nc2ccccc2Cl)s1`, 5.44%. To `Cc1ccc(C(=O)NCC(=O)N2CCCCCC2)cc1` belongs 17.9%; to `Cc1ccc(C=Nc2ccc(N(C)C)cc2)o1`, 3.51%.

As to `COc1cc(OC)cc(-c2nc(-c3ccc(Br)cc3)no2)c1`, the “hERG current change (%, negative = inhibition) at 1uM” value turned out to be 6.64%. For `Cc1ccc(-c2ccnc3nc(-n4cccc4)nn23)o1` the value was 10.1%; for `C#CCSc1n[nH]c(=O)n1-c1cccc(C(F)(F)F)c1`, 9.39%.

For the compound `COCC(C)OC(=O)c1c(N)n(-c2ccc(OC)c(OC)c2)c2nc3ccccc3nc12` (centres unmarked), the “hERG current change (%, negative = inhibition) at 1uM” value is reported as 7.58%.

Turning to `COc1ccc(S[C@@H](CCN2CC[C@H](O)CCC2=O)c2ccccc2)cc1`, the “hERG current change (%, negative = inhibition) at 1uM” value worked out at 11.9%. Consider `O=S(=O)(c1ccc2nc(-c3ccccc3)[nH]c2c1)N1CCN(c2ccc(Cl)cc2)CC1`, for which the “hERG current change (%, negative = inhibition) at 1uM” value is recorded as 5.61%. Regarding `COc1cccc(C(=O)Nc2ccc(F)cc2F)c1`, the “hERG current change (%, negative = inhibition) at 1uM” value is reported as -1.27%. To `CCOC(=O)c1c(C)nsc1NCc1ccccc1` belongs 8.43%.

Turning to `Cc1cccc(C)c1NC(=O)C(C)N` (centres unmarked), the “hERG current change (%, negative = inhibition) at 1uM” value is on record as -5.46%. Turning to `CCS(=O)(=O)N1CCC(C(=O)NCCc2ccc(OC)c(OC)c2)CC1`, the “hERG current change (%, negative = inhibition) at 1uM” value stood at 2.7%. As to `Cc1cc(=O)n2nc(N3CCCC3C(=O)NCc3ccccn3)sc2n1` (centres unmarked), the “hERG current change (%, negative = inhibition) at 1uM” value was determined as 9.3%. To `Cn1c(C(=O)OC(C(=O)NCC2CCCO2)c2cccnc2)cc2sccc21` (centres unmarked) belongs 5.86%. For `O=C1c2cccc3c([N+](=O)[O-])ccc(c23)C(=O)N1O` the value was 6.83%.

For `COc1cccc(NC(=O)Nc2ccncc2)c1`, the “hERG current change (%, negative = inhibition) at 1uM” value was 13.7%. For `CCCSC1=C(C#N)C(c2cc(OC)ccc2OC)CC(=O)N1` (centres unmarked) the value was 15.3%; for `COc1ccc(CC(=O)Nc2nc(-c3cccnc3)cs2)cc1`, 8.63%. `CN(C)c1ccc(N2C(=O)CC(c3ccccc3)CC2=O)cc1`: the “hERG current change (%, negative = inhibition) at 1uM” value came out at 9.47%. For `Cc1nnc2n(-c3ccccc3)c(=O)c3ccccc3n12` the value was 14.1%. For `Cc1ccc(-n2c(-c3ccc(Br)cc3)c[n+]3c2CCc2ccc4cccnc4c2-3)cc1.[Br-]` the value was -86.6%; for `Cc1cccc(NS(=O)(=O)c2nnc(NC(=O)c3cccc(C)c3)s2)c1`, 10.1%; for `Cc1cc(OCC(=O)OCC(=O)NCc2ccc3c(c2)OCO3)ccc1Cl`, 22.1%. To `CCC(=O)N1CCN(c2ccccc2NC(=O)Cc2ccc(Cl)cc2)CC1` belongs -41.5%.

As for `O=CN1CCN(C2CC(=O)N(c3ccc(Br)cc3)C2=O)CC1` (centres unmarked), the “hERG current change (%, negative = inhibition) at 1uM” value was found to be 6.78%. Turning to `N#Cc1c(N2CCOCC2)nc(-c2ccco2)c2c1CCCC2`, the “hERG current change (%, negative = inhibition) at 1uM” value amounted to 8.37%. To `Cl.O=c1cc(-c2ccccc2)[nH]n1-c1nc2ccccc2[nH]1` belongs 2.47%; to `CCCCNS(=O)(=O)c1ccc2nc(-c3cccnc3)cc(C(=O)NC(C)C)c2c1`, 11.9%. To `CCC(=O)Nc1ccc(N2CCC(C)CC2)cc1` belongs 18%; to `Clc1ccc2c(c1)nc1n2CCCC1`, 10.9%; to `Cc1occc1-c1nnc(SCC(=O)N(C)c2ccccc2)n1C`, 2.97%. As to `CCOc1cc(/C=N/Nc2nn3cnnc3c3ccccc23)ccc1O`, the “hERG current change (%, negative = inhibition) at 1uM” value was -5.29%. For `Cn1cc(CNC(=O)C2CCC(=O)N(Cc3ccc(Cl)cc3)C2)cn1` (centres unmarked) the value was 8.02%. For `O=C(CCc1ccccc1)N1C[C@H]2C[C@@H](C1)c1cccc(=O)n1C2` the value was 9.87%. For `CCN(CC)c1ccc(C2CC(=O)Nc3cc(OC)c(OC)cc32)cc1` (centres unmarked) the value was 13%. Regarding `CCCOc1ccc(N2C(=O)CC(N3CC=C(c4ccccc4)CC3)C2=O)cc1` (centres unmarked), the “hERG current change (%, negative = inhibition) at 1uM” value is 8.61%.

As for `COc1ccccc1/C=N/NC(=O)CO`, the “hERG current change (%, negative = inhibition) at 1uM” value was found to be 13.7%. For the compound `CCc1ccc(OC)c(S(=O)(=O)NCCOc2ccccc2)c1`, the “hERG current change (%, negative = inhibition) at 1uM” value is reported as 10.9%.

`CCN1CC(CN(C)Cc2nc(-c3ccco3)oc2C)CC1=O` (centres unmarked): the “hERG current change (%, negative = inhibition) at 1uM” value is reported as 9.66%.

On to `Cc1nnc(SCc2ccccc2C#N)n1-c1ccccc1`, for which the “hERG current change (%, negative = inhibition) at 1uM” value was 4.48%. To `Cc1c(C(=S)Nc2ccccc2)cnn1-c1ccccc1` belongs 7.57%; to `CCn1c(C)nc2cc(C(=O)NNC(=S)Nc3ccc(Cl)cc3Cl)ccc21`, 13.4%.

The record behind these values is PMC4336329 (PLoS ONE, 2015).
